Test results from a collection of fitness landscapes (doi:10.1016/j.celrep.2020.107928).
In all, about 81,000 sequences were measured (“one-hybrid fitness for binding parS DNA”: median about -0.17, highest 2% from about 0.51 on). Some of the results follow.

B1: Caulobacter ParB omega fusion; a variant is named by its letters at X, in order, B8GW30 (parent)
chain: MESVVVGEPGMSEGRRGLGRGLSALLGEVDAAPAQAPGEQLGGSREAPIEILQRNPDQPRRTFREEDLEDLSNSIREKGVLQPILVRPSPDTAGEYQIVAGERAWRAAQRAGLKTVPIMVRELDDLAVLEIGIIENVQRADLNVLEEALSYKVLMEKFERTQENIAQTIGKSXSHVANXMRLLXLPDEVQSYLVSGELTAXHARAIAAAADPVALAKQIIEGGLSVRETEALARKAPNLSAGKSKGGRPPRVKDTDTQALESDLSSVLGLDVSIDHRGSTGTLTITYATLEQLDDLCNRLTRGI

Variants of: B1
Test: one-hybrid fitness for binding parS DNA (scaled: cognate 1, non-cognate 0); higher = stronger binding
Settings: with parS DNA site
How it was run: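 Pre- and post-selection plasmids were Illumina-sequenced, three replicate libraries were pooled, and any variant with under 10 reads was removed. The libraries were Caulobacter ParB with four specificity codons randomised, selected in E. coli USO through a HIS3 reporter whose site is 19 bp from the promoter. Cells grew 48 hours at 37°C on M9 without histidine, with 0.1 mM IPTG and 5 mM 3-AT. Fitness is the log change in variant-to-wild-type read ratio, rescaled against cognate and non-cognate.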

Variant	one-hybrid fitness for binding parS DNA
KRRV	≤ 0.2
QLYN	≤ 0.2
CRQT	≤ 0.2
TDCC	≤ 0.2
QQAK	≤ 0.2
VCRG	≤ 0.2
YPNE	≤ 0.2
ELSR	≤ 0.2
QGTY	≤ 0.2
WLDG	≤ 0.2
MRRM	≤ 0.2
EALL	≤ 0.2
TFLG	≤ 0.2
PYMY	≤ 0.2
ADKG	≤ 0.2
VRKL	≤ 0.2
AHIW	≤ 0.2
QLDD	≤ 0.2
VWRA	≤ 0.2
ILLF	≤ 0.2
GHYF	≤ 0.2

Variant	one-hybrid fitness for binding parS DNA
SYTM	≤ 0.2
KRAF	≤ 0.2
YLQT	≤ 0.2
RFVW	≤ 0.2
KEPE	≤ 0.2
NHTG	≤ 0.2
LPRL	≤ 0.2
HVIE	≤ 0.2
VECA	≤ 0.2
PVQL	≤ 0.2
VLRC	≤ 0.2
KSRM	≤ 0.2
RLES	1
PTTW	≤ 0.2
RTFT	0.911
QAKA	≤ 0.2
SCGP	≤ 0.2
SAEA	≤ 0.2
SWLG	≤ 0.2
QYIM	≤ 0.2
NCYT	≤ 0.2

Variant	one-hybrid fitness for binding parS DNA
MAHG	≤ 0.2
YLTT	≤ 0.2
REFC	≤ 0.2
LYLC	≤ 0.2
PEGR	≤ 0.2
QPTY	≤ 0.2
GTPY	≤ 0.2
SGLC	≤ 0.2
HPSD	≤ 0.2
DRSC	≤ 0.2
VGKR	≤ 0.2
SRAC	≤ 0.2
PNDV	≤ 0.2
RDID	≤ 0.2
GHES	≤ 0.2
EQPR	≤ 0.2
KRTP	≤ 0.2
RLHM	0.321
EVCC	≤ 0.2
RMMP	≤ 0.2
DFPN	≤ 0.2

Variant	one-hybrid fitness for binding parS DNA
QSKR	≤ 0.2
PRVM	≤ 0.2
VLDC	≤ 0.2
HRTV	≤ 0.2
ERLP	≤ 0.2
HAKA	≤ 0.2
SAIV	≤ 0.2
QWFS	≤ 0.2
FSYR	≤ 0.2
MNSG	≤ 0.2
QNPH	≤ 0.2
CRHC	≤ 0.2
REFQ	≤ 0.2
PIRM	≤ 0.2
VDFG	≤ 0.2
PCMD	≤ 0.2
PDPA	≤ 0.2
LSGP	≤ 0.2
YCLT	≤ 0.2
RPPC	≤ 0.2
KSGF	≤ 0.2
